No constants are given. Whether binding was seen depends on the method and setting. Some entries that bind do so weakly or less than the wild type.
target: T1, LexA_11E6_WT (human papillomavirus 11) (UniProt P04019); test: two-hybrid; yeast; LexA DNA binding domain fused to E6 proteins (bait) mated to yeast with B42 (or Gal4) transactivator fusions of E6AP constructs or PTPN3 (prey); LexA-responsive lacZ reporter, dark XGAL patch
T1 sequence: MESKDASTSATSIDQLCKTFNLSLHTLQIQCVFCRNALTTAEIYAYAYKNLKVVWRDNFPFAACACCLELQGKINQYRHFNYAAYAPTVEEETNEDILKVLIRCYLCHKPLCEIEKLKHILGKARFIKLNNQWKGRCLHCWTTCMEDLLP

The chains behind the UniProt entries cited, without tags or fusion partners. Residues count along the entry.
B42_E6AP 406–595 (Q05086, residues 406-595): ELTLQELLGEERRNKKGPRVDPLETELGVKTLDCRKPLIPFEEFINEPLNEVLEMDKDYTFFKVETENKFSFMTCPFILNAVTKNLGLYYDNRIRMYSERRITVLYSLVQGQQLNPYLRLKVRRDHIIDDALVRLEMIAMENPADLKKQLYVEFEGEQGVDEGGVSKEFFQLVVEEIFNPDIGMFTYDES
B42_E6AP 406–561 (Q05086, residues 406-561): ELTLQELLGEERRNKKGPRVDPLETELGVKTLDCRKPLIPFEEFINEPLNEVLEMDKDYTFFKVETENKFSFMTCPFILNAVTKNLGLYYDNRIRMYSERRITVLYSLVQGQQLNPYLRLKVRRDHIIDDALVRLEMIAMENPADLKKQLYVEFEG
UniProt P26045: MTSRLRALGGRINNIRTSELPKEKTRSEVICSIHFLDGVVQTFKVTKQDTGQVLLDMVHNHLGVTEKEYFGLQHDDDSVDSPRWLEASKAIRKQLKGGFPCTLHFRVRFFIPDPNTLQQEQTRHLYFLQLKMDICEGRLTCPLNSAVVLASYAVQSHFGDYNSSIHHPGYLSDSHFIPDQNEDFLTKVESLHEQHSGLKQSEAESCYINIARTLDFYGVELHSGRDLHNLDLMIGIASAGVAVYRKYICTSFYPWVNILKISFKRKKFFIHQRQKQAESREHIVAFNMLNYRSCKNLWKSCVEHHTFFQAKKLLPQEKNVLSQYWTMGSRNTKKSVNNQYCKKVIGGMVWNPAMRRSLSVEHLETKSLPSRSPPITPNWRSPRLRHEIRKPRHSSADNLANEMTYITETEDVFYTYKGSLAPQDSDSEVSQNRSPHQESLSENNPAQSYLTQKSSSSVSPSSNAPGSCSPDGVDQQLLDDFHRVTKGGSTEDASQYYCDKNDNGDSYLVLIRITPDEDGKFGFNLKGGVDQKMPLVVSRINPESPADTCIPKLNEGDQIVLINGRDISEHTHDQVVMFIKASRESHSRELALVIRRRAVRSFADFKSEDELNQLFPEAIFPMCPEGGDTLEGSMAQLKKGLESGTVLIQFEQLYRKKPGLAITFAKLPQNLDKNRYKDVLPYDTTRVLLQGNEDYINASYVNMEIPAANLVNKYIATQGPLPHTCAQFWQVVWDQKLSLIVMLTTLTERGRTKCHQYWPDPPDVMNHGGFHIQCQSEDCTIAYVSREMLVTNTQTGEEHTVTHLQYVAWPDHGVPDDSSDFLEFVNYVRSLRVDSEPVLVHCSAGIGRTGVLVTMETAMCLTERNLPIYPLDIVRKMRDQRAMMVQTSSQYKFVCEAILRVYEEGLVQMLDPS

**Q.** For “B42_LQELS (from UniProt Q05086 406-417) (peptide)”, which binding is on record?
**A.** Its binding is “no binding”.

**Q.** Which binding does the source give for “Gal4 (G4) transactivator fused PTPN3 (from UniProt P26045 1-913)” here?
**A.** The binding was “no binding”.

**Q.** “B42_E6AP 406–561 (from UniProt Q05086 406-561) (domain or fragment)” was tested. Which binding did it give?
**A.** The binding was “no binding”.

**Q.** How did the binding turn out when “B42_E6AP 406–595 (from UniProt Q05086 406-595) (domain or fragment)” was run?
**A.** The binding was “binds”.

**Q.** With “B42_LQELL (from UniProt Q05086 406-417) (peptide)” as the substance, how does the binding read?
**A.** Its binding is “no binding”.

Source: paper PMC6999913
